Reference: the supplement of paper PMC5919970
Structures can show the parent of a compound that is named as a salt. The full ranking holds about 2,000 compounds; the median of “fractional viability relative to vehicle” is about 0.91, and the lowest 2% start at about 0.045. Some of the results follow.

System: TYKNU
Assay: fractional viability relative to vehicle; TYKNU is a high-grade serous ovarian cancer line; higher = less growth inhibition
Conditions: 72 h
Procedure, shortened: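 Drug treatment lasted 72 h, with cells grown at 37 °C in 5% CO2 in RPMI 1640 supplemented with 10% FBS. Beforehand, TYKNU control cells or their lentiCRISPRv2 knockout derivatives had been seeded at 500 cells per well into drug-stamped 384-well plates carrying a ~2100-compound library at 2 or 10 μM, in duplicate. Viability came from Cell Titer Glo luminescence, with averaged duplicate treatment wells normalised to duplicate control wells in the same plate position.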

[1] = 2uM, genotype: DNM1L knockout (sgDNM1L #1)
[2] = 2uM, genotype: sgCTRLA1 (non-targeting control)
[3] = 10uM, genotype: DNM1L knockout (sgDNM1L #1)
[4] = 10uM, genotype: sgCTRLA1 (non-targeting control)

| Compound | fractional viability [1] | fractional viability [2] | fractional viability [3] | fractional viability [4] |
| --- | --- | --- | --- | --- |
| CC(C)C[C@H](NC(=O)CNC(=O)c1cc(Cl)ccc1Cl)B(O)O | 0.122 | 0.107 | 0.0888 | 0.0714 |
| O=C(O[C@@H]1Cc2c(O)cc(O)cc2O[C@@H]1c1cc(O)c(O)c(O)c1)c1cc(O)c(O)c(O)c1 [(-)-Epigallocatechin Gallate] | 0.973 | 1.04 | 0.877 | 1.02 |
| CCN(CC)CCN(Cc1ccc(-c2ccc(C(F)(F)F)cc2)cc1)C(=O)Cn1c(SCc2ccc(F)cc2)nc(=O)c2c1CCC2 | 0.329 | 0.569 | 0.0156 | 0.00842 |
| N#C[C@@H]1CCCN1C(=O)CNC12CC3CC(CC(O)(C3)C1)C2 [Vildagliptin (LAF-237)] | 0.917 | 1.12 | 1.04 | 1.01 |
| Cc1nc(Nc2n[nH]c3c2CN(C(=O)N[C@H](CN(C)C)c2ccccc2)C3(C)C)c2sccc2n1 | 0.127 | 0.16 | 0.115 | 0.135 |
| CCOc1ccn(-c2ccc(F)cc2)c(=O)c1C(=O)Nc1ccc(Oc2ccnc(N)c2Cl)c(F)c1 | 0.895 | 1.09 | 0.69 | 0.921 |
| CNC[C@H](O)c1cccc(O)c1 [Phenylephrine HCl] | 0.818 | 0.894 | 0.784 | 0.899 |
| N[C@@H]1CN(c2c(F)cc3c(=O)c(C(=O)O)cn([C@@H]4C[C@@H]4F)c3c2Cl)CC12CC2 [Sitafloxacin Hydrate] | 1.23 | 1.21 | 1.13 | 1.12 |
| O=C(O)c1ccc(Nc2ncc3c(n2)-c2ccc(Cl)cc2C(c2c(F)cccc2F)=NC3)cc1 | 0.651 | 0.938 | 0.398 | 0.623 |
| C[C@H](NC(=O)Cc1cc(F)cc(F)c1)C(=O)N[C@@H]1C(=O)N(C)c2ccccc2-c2ccccc21 | 1.03 | 1.01 | 0.767 | 1.04 |
| Cc1cc(N2CCOCC2)ccc1Nc1nc(NC2CCCCC2)c2[nH]cnc2n1 | 0.443 | 0.469 | 0.462 | 0.382 |
| O=c1c(-c2ccc(O)cc2)coc2cc(O)cc(O)c12 [Genistein] | 0.966 | 1.08 | 0.621 | 1 |
| OCc1ccc(-c2ccc(-c3ccc(CO)s3)o2)s1 | 0.429 | 0.66 | 0.141 | 0.248 |
| CSc1cccc(Nc2ncc3cc(-c4c(Cl)cccc4Cl)c(=O)n(C)c3n2)c1 | 0.603 | 1.09 | 0.198 | 0.486 |
| CNC(=C[N+](=O)[O-])NCCSCc1ccc(CN(C)C)o1 [Ranitidine] | 0.91 | 1.04 | 0.719 | 0.999 |
| C=CCc1ccc(O)c(-c2ccc(O)c(CC=C)c2)c1 [Honokiol] | 1.13 | 1.1 | 0.797 | 0.958 |
| COC(=O)[C@H]1[C@H]2C[C@@H]3c4[nH]c5cc(OC)ccc5c4CCN3C[C@H]2C[C@@H](OC(=O)c2cc(OC)c(OC)c(OC)c2)[C@@H]1OC [Reserpine] | 0.965 | 1.1 | 0.127 | 0.485 |
| COc1cc2c(cc1OC)-c1cc3ccc(OC)c(OC)c3c[n+]1CC2 [Palmatine chloride] | 0.974 | 1.03 | 0.801 | 0.948 |
| Cc1nc(C)c(Cl)c(O)c1Cl [Clopidol] | 0.814 | 1.16 | 0.873 | 1.08 |

| Compound | fractional viability [1] | fractional viability [2] | fractional viability [3] | fractional viability [4] |
| --- | --- | --- | --- | --- |
| CCN(CC)CCCC(C)Nc1c2ccc(Cl)cc2nc2ccc(OC)cc12 (stereo not drawn) [Quinacrine 2HCl] | 0.491 | 0.536 | 0.0312 | 0.0211 |
| CC(C)(C)NS(=O)(=O)c1cncc(-c2cc(F)c3nc(N)nn3c2)c1 | 0.916 | 1.04 | 1.06 | 1.03 |
| O=C(O)P(=O)(O)O [Foscarnet Sodium] | 1 | 1.11 | 0.854 | 1.05 |
| C1=N/C2=N/c3ccc(OCCN4CCCC4)c(c3)COC/C=C/COCc3cccc(c3)C(=C1)N2 [Pacritinib (SB1518)] | 0.128 | 0.169 | 0.0312 | 0.029 |
| COc1cc(C=O)ccc1O [Vanillin] | 1.03 | 1.03 | 0.803 | 1.13 |
| CNc1ncc2cc(-c3cc(NC(=O)NCCC(C)(C)C)c(F)cc3C)c(C)nc2n1 | 0.793 | 0.953 | 0.838 | 0.809 |
| C#C[C@]1(O)CC[C@H]2[C@@H]3CCc4cc(OC)ccc4[C@H]3CC[C@@]21C [Mestranol] | 0.904 | 1.02 | 0.646 | 0.935 |
| CC(C)NCC(O)c1ccc(NS(C)(=O)=O)cc1 (stereo not drawn) [Sotalol] | 0.843 | 1.14 | 0.834 | 1.01 |
| CN(C)C(=O)c1ccc(S(=O)(=O)c2ccc(NC(=O)[C@@](C)(O)C(F)(F)F)c(Cl)c2)cc1 | 0.831 | 0.889 | 0.602 | 0.609 |
| CN(CCOc1ccc(NS(C)(=O)=O)cc1)CCc1ccc(NS(C)(=O)=O)cc1 [Dofetilide] | 0.999 | 0.981 | 0.838 | 0.933 |
| CC(=O)N1CCN(c2ccc(OCC3COC(Cn4ccnc4)(c4ccc(Cl)cc4Cl)O3)cc2)CC1 (stereo not drawn) [Ketoconazole] | 0.908 | 1.04 | 0.782 | 0.88 |
| Cc1[nH]c(/C=C2\C(=O)Nc3ccccc32)c(C)c1CCC(=O)O [TSU-68 (SU6668, Orantinib)] | 0.962 | 1.11 | 0.869 | 1.02 |
| N[C@@H]1CCCN(c2c(/C=C3\SC(=O)NC3=O)cccc2-c2ccccc2)C1 | 0.726 | 1.16 | 0.702 | 1.05 |
| CO[C@H]1C[C@@H]2CC[C@@H](C)[C@@](O)(O2)C(=O)C(=O)N2CCCC[C@H]2C(=O)O[C@H]([C@H](C)C[C@@H]2CC[C@@H](O)[C@H](OC)C2)CC(=O)[C@H](C)/C=C(\C)[C@@H](O)[C@@H](OC)C(=O)[C@H](C)C[C@H](C)/C=C/C=C/C=C/1C [Rapamycin (Sirolimus)] | 0.64 | 0.721 | 0.607 | 0.68 |
| COc1cc2ncnc(Nc3ccc(Cl)cc3F)c2cc1OC | 1.43 | 1.19 | 1.1 | 1.17 |
| N#Cc1ccc2[nH]c(O)c(-c3ccc(CN4CCOCC4)cn3)c2c1 | 0.808 | 1.12 | 0.479 | 0.838 |
| Oc1ccc(Nc2nc(-c3ccc(Cl)cc3)cs2)cc1 | 0.857 | 1.03 | 0.558 | 0.712 |
| c1ccc2c(Oc3nc(Nc4ccc(N5CCOCC5)cc4)c4ncn(C5CCCCC5)c4n3)cccc2c1 [Purmorphamine] | 0.802 | 1.16 | 0.725 | 0.986 |
